For this test, the target named is T1, IFN-αR2, recombinant receptor (UniProt P48551 34-232).
T1 sequence: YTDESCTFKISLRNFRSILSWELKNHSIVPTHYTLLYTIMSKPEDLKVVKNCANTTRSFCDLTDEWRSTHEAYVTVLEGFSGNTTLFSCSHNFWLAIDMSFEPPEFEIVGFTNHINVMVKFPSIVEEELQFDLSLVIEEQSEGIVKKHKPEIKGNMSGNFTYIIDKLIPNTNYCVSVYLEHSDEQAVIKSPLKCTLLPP
The test can be described thus: SPR.

B1: IFN-ω (Lys152Arg) (ligand)
chain: not shown
Take B1: the Kd (usually the free concentration of one partner at which half of the binding sites on the other are occupied at equilibrium, for simple one-to-one binding) is 0.2 nM.

The values above are taken from article PMC5510750 (Immunity, 2017).
